# Results published in PubChem BioAssay AID1347165 (National Center for Advancing Translational Sciences (NCATS), 2019).
# About 5,700 (2.6%) of roughly 220,000 compounds were called active. Inconclusive results, whose numbers are uncertain, are shown with a selection of clear calls. The call rests on the fitted dose curve; in most records, active means well fitted inhibition curve with a large enough effect; inconclusive means small, poorly fitted or top-dose-only effect; inactive means no such curve, though single readings can be large or run the other way. Where the call is inconclusive, the potency comes from a doubtful curve fit.
# Biological target: Lysine-specific demethylase 5B (Homo sapiens) (UniProt Q9UGL1)
# UniProt Q9UGL1, sequence (Q9UGL1 whole entry, looked up): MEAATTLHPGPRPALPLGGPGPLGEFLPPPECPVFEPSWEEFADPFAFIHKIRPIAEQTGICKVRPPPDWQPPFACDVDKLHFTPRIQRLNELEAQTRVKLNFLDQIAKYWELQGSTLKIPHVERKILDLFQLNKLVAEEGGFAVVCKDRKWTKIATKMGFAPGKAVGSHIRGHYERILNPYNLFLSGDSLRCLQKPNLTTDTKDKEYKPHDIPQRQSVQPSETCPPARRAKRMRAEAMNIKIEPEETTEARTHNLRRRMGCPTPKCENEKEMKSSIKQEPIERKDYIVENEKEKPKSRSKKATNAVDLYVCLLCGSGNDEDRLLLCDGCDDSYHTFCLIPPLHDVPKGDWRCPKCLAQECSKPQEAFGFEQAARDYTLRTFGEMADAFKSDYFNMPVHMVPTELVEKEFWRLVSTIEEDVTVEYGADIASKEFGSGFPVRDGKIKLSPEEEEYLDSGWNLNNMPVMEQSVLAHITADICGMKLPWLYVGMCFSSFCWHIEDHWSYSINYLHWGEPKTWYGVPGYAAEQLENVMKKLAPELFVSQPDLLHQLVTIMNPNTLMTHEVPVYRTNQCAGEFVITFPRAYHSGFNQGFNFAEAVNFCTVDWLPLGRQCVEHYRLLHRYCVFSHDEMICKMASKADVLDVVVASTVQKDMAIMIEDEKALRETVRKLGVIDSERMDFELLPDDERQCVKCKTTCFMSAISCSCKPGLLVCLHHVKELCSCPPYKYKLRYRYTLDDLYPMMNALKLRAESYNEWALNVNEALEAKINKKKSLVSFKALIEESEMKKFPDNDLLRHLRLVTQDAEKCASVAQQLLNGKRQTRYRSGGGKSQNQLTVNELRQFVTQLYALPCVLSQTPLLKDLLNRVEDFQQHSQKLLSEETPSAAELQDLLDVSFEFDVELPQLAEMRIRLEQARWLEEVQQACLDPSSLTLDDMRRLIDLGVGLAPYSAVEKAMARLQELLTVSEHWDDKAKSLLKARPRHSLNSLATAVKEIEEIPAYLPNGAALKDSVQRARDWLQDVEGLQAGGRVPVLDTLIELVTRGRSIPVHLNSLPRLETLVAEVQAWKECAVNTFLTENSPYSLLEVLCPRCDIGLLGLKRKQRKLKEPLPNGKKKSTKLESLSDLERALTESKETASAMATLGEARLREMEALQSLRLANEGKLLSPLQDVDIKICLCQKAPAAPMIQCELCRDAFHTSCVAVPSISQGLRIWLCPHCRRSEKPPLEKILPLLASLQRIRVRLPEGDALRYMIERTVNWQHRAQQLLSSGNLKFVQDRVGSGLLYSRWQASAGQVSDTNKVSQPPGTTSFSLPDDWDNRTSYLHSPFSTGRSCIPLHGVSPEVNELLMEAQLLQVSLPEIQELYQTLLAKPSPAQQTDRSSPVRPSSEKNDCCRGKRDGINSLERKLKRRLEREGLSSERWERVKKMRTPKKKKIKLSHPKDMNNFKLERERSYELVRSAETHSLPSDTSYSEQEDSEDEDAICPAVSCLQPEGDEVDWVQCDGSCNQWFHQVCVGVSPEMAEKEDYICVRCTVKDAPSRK
# Assay: Primary screen for KDM5B Histone Demethylases FDH-coupled qHTS; further: nearly all actives have a fitted effect of over 70% in size; on activity change, negative = inhibition: 0% is about no effect
# Conditions: FDH-coupled NADH fluorescence (FDH is formaldehyde dehydrogenase); activity change, negative = inhibition: at 57.7 µM (top of the series) unless noted
# How it was run: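 Here, H3K4me3 peptide (12.5 µM in substrate mix) is demethylated by KDM5BΔAP, 200 nM final, after 10 min compound exposure. Formaldehyde product is coupled through FDH (0.25 U/mL in mix) to NADH fluorescence; 30-min ΔRFU feeds dose-response curves.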
# Potency means the concentration at half of the fitted maximal effect; tags describe the fitted curve by direction and shape.
Compound,Potency,"activity change, negative = inhibition"
COc1ccc2nc(C)c(C(=O)NCc3cccnc3-n3cccn3)cc2c1,"inconclusive: 39.8 µM [inhibitor, single point]",–
Cc1oc(-c2cccs2)nc1CC(=O)Nc1cc(F)ccc1F,"inconclusive: 28.2 µM [inhibitor, partial curve, poor fit]",–
COc1ccc(NC(=O)CN2C(=O)C(c3ccccc3)=NC23CCCCC3)cc1,inactive,–
Cc1nc2sc3c(c2c(-c2ccccc2)c1C(N)=O)CCCC3,inactive,–
O=C1Nc2cc(Cl)ccc2C(=O)N2CCN(C(=O)c3ccccc3)C[C@H]12,"inconclusive: 35.5 µM [inhibitor, single point]",–
O=C(Nc1ccccc1F)C1c2ccccc2C(=O)N(Cc2ccccc2)C12CCCC2 (stereo not drawn),inactive,–
Nc1c(C(=O)Nc2ccc(C(=O)O)cc2)sc2nc3c(cc12)CCCC3,"inconclusive: 15.8 µM [inhibitor, partial curve, poor fit]",–
Cc1cccc(C(=O)Nc2nnc(S(=O)(=O)N(C)Cc3ccco3)s2)c1,"inconclusive: 1.41 µM [inhibitor, partial curve, poor fit]",–
Cn1c(=O)n(C)c2cc(S(=O)(=O)c3ccc(F)cc3)c(NC(=O)Cc3ccccc3Cl)cc21,inactive,–
Cc1nn(-c2ccccc2)c2sc(C(=O)Nc3ccccc3Br)cc12,"inconclusive: 31.6 µM [inhibitor, partial curve, poor fit]",–
CCN(CC)C(=O)CC[C@H]1CNC(=O)[C@@H]2[C@@H](CCN2Cc2csnn2)N1C,"inconclusive: 28.2 µM [inhibitor, single point]",–
CC(C)C[C@@H](NC(=O)[C@@H]1C[C@@H](NS(=O)(=O)c2cn(C)cn2)CCN1C(=O)COCC(=O)O)C(N)=O,inactive,–
Cc1cc(-n2c(=O)c3sccc3n(CC(=O)NC3CCc4ccccc43)c2=O)ccc1F (stereo not drawn),inactive,–
CC(=O)Nc1cccc2ccc(OCc3nnc(C(=O)N4CCC[C@@H]4c4ccc(Br)cc4)n3Cc3ccccc3)cc12,"inconclusive: 14.1 µM [inhibitor, partial curve, poor fit]",–
Cc1ccc(CN(C)C2CCc3nn(C)c(=O)n3CC2)nc1 (stereo not drawn),inactive,–
O=C(O)c1ccc2c(c1)CC(=O)N2Cc1ccc(F)cc1,inactive,–
CN1CCOc2c(C(=O)NCc3cccnc3)cc(-c3cccc4[nH]ccc34)cc21,active: 35.5 µM,–
COc1ccc(Cc2nc3nccc(-c4cccs4)n3n2)cc1,inactive,–
Cn1cnc2cc(-c3cccc(C(F)(F)F)c3)cc(C(=O)NCc3cccnc3)c21,"inconclusive: 14.1 µM [inhibitor, partial curve]",–
CCOc1ccccc1NS(=O)(=O)c1ccc(-c2cnc(C3CC3)o2)cc1,–,inconclusive: -31% [inhibitor]
COc1ccc(C2CC(=O)Nc3sc(C(=O)Nc4cccc(C(F)(F)F)c4)c(C)c32)cc1O (stereo not drawn),"inconclusive: 39.8 µM [inhibitor, single point]",–
Cn1cccc1C(=O)N1CCC(n2cc(-c3nc(-c4ccccc4)no3)nn2)C1 (stereo not drawn),inactive,–
COCCN1C(=O)CO[C@H]2CN(Cc3ccccc3)C[C@H]21,inactive,–

Compound,Potency,"activity change, negative = inhibition"
CCNC(=O)N1CCOc2ccc(CCC(=O)NCc3nc4ccccc4n3C)cc2C1,inactive,–
CC(C)CC(=O)N1CCC2(CC1)CC(C(=O)N1CCOCC1)N(C)C2 (stereo not drawn),"inconclusive: 31.6 µM [inhibitor, partial curve, poor fit]",–
O=C(CC1C(=O)NCCN1Cc1ccccc1)NCCCOc1cccnc1 (stereo not drawn),"inconclusive: 39.8 µM [inhibitor, single point]",–
NCCn1cc(C(=O)N2CCCC(c3[nH]ncc3Cc3ccccc3)C2)nn1 (stereo not drawn),"inconclusive: 22.4 µM [inhibitor, partial curve, poor fit]",–
COc1ccc(-c2nc(C)nc3c2CN(C(=O)c2ccc4c(c2)OCO4)CC3)cc1,"inconclusive: 35.5 µM [inhibitor, partial curve, poor fit]",–
COc1c(C)cccc1C(=O)Nc1ccc(-c2nc3ccccc3o2)cc1,"inconclusive: 1.78 µM [inhibitor, partial curve, poor fit]",–
Cc1ccc(-c2csc(=Nc3ccc(F)cc3)n2Cc2ccc3c(c2)OCO3)cc1C,"inconclusive: 31.6 µM [inhibitor, single point]",–
CC1(COc2ccc3[nH]ccc3c2)COc2ccc(C(=O)NCc3ccco3)cc2N1 (stereo not drawn),"inconclusive: 39.8 µM [inhibitor, partial curve, poor fit]",–
COc1ccc2c(c1)c(C(C(=O)O)N1CCN(Cc3cccnc3)CC1)cn2CCC(=O)O (stereo not drawn),inactive,–
COc1ccc(OC)c(CN2CCCn3nc(C)c(-c4ccnn4C(C)C)c32)c1,inactive,–
Cc1ccc(C2CCN(C(=O)c3cnn(-c4ccc(C)cc4)c3C3CCN(C(=O)OC(C)(C)C)CC3)C2)cc1 (stereo not drawn),"inconclusive: 10 µM [inhibitor, partial curve, poor fit]",–
Cc1nn2c(N3CCC(O)C3)cc(-c3ccccc3)nc2c1C (stereo not drawn),active: 28.2 µM,–
C=Cc1ccc(Cn2c(C(=O)O)c(CNCc3ccccc3)c3ccc(C)cc32)cc1,"inconclusive: 35.5 µM [inhibitor, single point]",–
Cc1ccc(C(=O)CC2(C#N)C(N)=C(C=O)CC2(C#N)C#N)cc1 (stereo not drawn),"inconclusive: 17.8 µM [inhibitor, partial curve, poor fit]",–
Cc1ccc(-c2ccc(=O)n(CC(=O)Nc3cccc(C#N)c3)n2)cc1,inactive,–
CC1CCN(CC(=O)N2CCN(S(=O)(=O)c3ccc(F)c(F)c3)CC2)CC1,inactive,–
O=c1c(N2CCc3ccccc3C2)csc2ccccc12,"inconclusive: 31.6 µM [inhibitor, partial curve, poor fit]",–
O=C1Nc2ccccc2CC12CCCN2C1CCCCC1 (stereo not drawn),"inconclusive: 89.1 µM [inhibitor, partial curve]",–
CC(=O)Nc1ccc(NC(=O)c2oc3ccc4c(c3c2C)C(=O)CC(C)(C)O4)cc1,"inconclusive: 31.6 µM [inhibitor, partial curve, poor fit]",–
Cc1ccc(F)cc1NCc1ccccc1C#N,inactive,–
O=C(COc1ccccc1)N[C@H]1CO[C@H]2[C@@H]1OC[C@@H]2Nc1nccc(-c2ccco2)n1,"inconclusive: 31.6 µM [inhibitor, partial curve, poor fit]",–
COc1cccc(-c2csc(NNC(=O)c3cccs3)n2)c1,"inconclusive: 25.1 µM [inhibitor, single point]",–
COc1cccc(OCc2nc3c(n2Cc2ccccc2)C(=O)N(Cc2cccc(Cl)c2)CCN3)c1,inactive,–

Compound,Potency,"activity change, negative = inhibition"
COc1ccc(CCN2CC(C(=O)NCCc3ccc(C)cc3)CC2=O)cc1OC (stereo not drawn),–,inconclusive: -33.3% [inhibitor]
CN(CC(=O)Nc1cccc(F)c1)C(=O)CCc1ncc(-c2ccccc2Cl)o1,inactive,–
O=C(Cc1ccccc1Cl)N1CCN(c2ncnc3nc[nH]c23)CC1,inactive,–
N#Cc1ccc(CN2CCc3nc(N4CCc5ccccc5C4)[nH]c(=O)c3CC2)cc1,"inconclusive: 39.8 µM [inhibitor, single point]",–
Cc1noc(C)c1C(=O)NC1CCCc2c1[nH]c1ccccc21 (stereo not drawn),"inconclusive: 28.2 µM [inhibitor, partial curve]",–
Cc1cc(C[C@@H]2COC[C@@H]2NC(=O)CN2CCN(c3ncccn3)CC2)on1,"inconclusive: 20 µM [inhibitor, single point]",–
COc1ccc(CN2C[C@H]3CN(Cc4cnn(C)c4)CCN3C2=O)cc1,"inconclusive: 50.1 µM [inhibitor, single point]",–
CCOC(=O)c1[nH]c2ccccc2c1NC(=O)c1ccc(OC(C)C)cc1,"inconclusive: 31.6 µM [inhibitor, partial curve, poor fit]",–
COc1ccc(C2=CC(c3ccc(OC)cc3)n3nnnc3N2)cc1 (stereo not drawn),"inconclusive: 35.5 µM [inhibitor, partial curve, poor fit]",–
COc1ccccc1C(=O)N[C@H]1[C@H](O)[C@H](O)C[C@@H]1c1ccc(N2CCOCC2)nc1,"inconclusive: 35.5 µM [inhibitor, single point]",–
Nc1nc(N2CCOCC2)nc2c1C(C(=O)Nc1ccc(Cl)cc1)CC(=O)N2 (stereo not drawn),inactive,–
COc1ccc(NC(=O)C2CN(S(=O)(=O)C3CC3)CC23CCCCC3)cc1 (stereo not drawn),inactive,–
Cc1nc(C)c(-c2ccc(SCC(=O)Nc3ccccc3F)nn2)s1,"inconclusive: 31.6 µM [inhibitor, single point]",–
COCCCNC(=O)CCCn1c(=O)c2cccn2c2cccnc21,"inconclusive: 17.8 µM [inhibitor, partial curve, poor fit]",–
O=C(/C(=C/c1cccnc1)n1ccnc1)c1ccc(Cl)cc1Cl,"inconclusive: 28.2 µM [inhibitor, single point]",–
COc1ccc(-c2nc(C#N)c(N3CCN(Cc4ccccc4)CC3)o2)cc1OC,"inconclusive: 22.4 µM [inhibitor, partial curve, poor fit]",–
CCCN(CCC)CCCNC(=O)Cn1ncc2c3ccccc3n(Cc3ccc(F)cc3)c2c1=O,"inconclusive: 35.5 µM [inhibitor, single point]",–
COc1ccc(OCCOC(=O)c2cc(=O)c3cc(Cl)ccc3o2)cc1,inactive,–
CCOc1cccc(-c2cc(C(=O)O)c3cc(C)ccc3n2)c1,inactive,–
Brc1ccc(-c2cc3c(N4CCN(c5ccccc5)CC4)nccn3n2)cc1,–,inconclusive: -36% [inhibitor]
O=S(=O)(CCNCc1cccc(Cl)c1)Cc1ccccc1,inactive,–
COc1ccc(C2CC(=O)Nc3nc(N)sc32)cc1OCc1ccccc1Cl (stereo not drawn),"inconclusive: 2 µM [inhibitor, full curve, poor fit]",–
